B1: LINE1-mini (parent)
chain: GGCAGAGCUCAACACAGCGUGGCAAAGUGGCUGUGGCUAGACUGCC

Read counts are not given, so values of variants with three or more changes are uncertain.

The variants in this data set derive from B1. Put plainly: self-cleavage, relative activity (ratio to wild type); higher = more cleavage; in vitro, sequencing; the parent is a self-cleaving ribozyme.
As to G1C A25U G27A C31A G33A, the self-cleavage was found to be 0.03. As for G1A U20A A26U C45A, the figure is 0.33; as for G1A G7C C13A C23U, 1.06. As to G1C C18G A26G A41U, the self-cleavage worked out at 0.

Consider G1A G21A G22A, for which the self-cleavage was found to be 0.41. With G1C C13U G21U C46G, the self-cleavage was 0.01. As for G1C A6G G19U, the figure is 0.04; as for G1C A26G G35U C42G, 0.01; as for G1A C15U A16G, 0.65. As for G1C C23A C31G, the figure is 0.02; as for G1A G5C A6G, 0.16; as for G1C A4C C42U, 0.05. As for G1A G21C A24G, the figure is 0.97; as for G1A G5U C8A C18U U38C, 0.15; as for G1C C8A C15U, 0.04. As to G1C C8U G36C, the self-cleavage came to 0.04. As for G1C C3U U9C, the figure is 0.07; as for G1C G7C A26U C31U, 0.01; as for G1C A11U A14G G17U C23U A39U, 0.01. As for G1C A14G G30A A39U, the figure is 0.02. For the variant G1C G2U U20G, the self-cleavage was 0.06. As for G1C G7U C13A U43C C46A, the figure is 0.03; as for G1C G7C A12U A24C C31U G36U, 0.01; as for G1C A26C U38G, 0.02. As for G1C G17A A41C C45U, the figure is 0.01. As for G1C A16U C23G U43A, the figure is 0. With G1A G17A G30U U43A, the self-cleavage is 0.15. As for G1A C18A G21C G35C, the figure is 0; as for G1C G7A C13G U38C C42G, 0.2.

Turning to G1A G7U U9A C13U A14U C15A, the self-cleavage came to 0.29. As for G1A G19U G35U C42G, the figure is 0.08; as for G1A G2A U9G C10A C23U, 0.06; as for G1C C3U C45U, 0.06. As for G1C A26C G30A, the figure is 0.53; as for G1C C3G C31G, 0.08. As for G1A G2A U32C, the figure is 0.37; as for G1C G7C G19U U43A, 0.01. For the variant G1C A4U C13G G21U, the self-cleavage came out at 0.05.

Regarding G1C G2C A12U C13A A26U, the self-cleavage was 0.05.

On to G1C A25U C37G U38C C42A C45A, for which the self-cleavage is 0. As for G1A C18U C23A, the figure is 0.64; as for G1C G2U C8U A12U, 0.02; as for G1A G2U U32G C45A, 0.09. As for G1A G2U G5C G35A, the figure is 0.06; as for G1A G36U A41C, 0.06. As for G1A U28G C45A, the figure is 0.29; as for G1C G2C C3A A25U C31U A39G C42U, 0.19; as for G1C G2C C10A C15A, 0.01. Take G1C G5A C23A C37G C45U: the self-cleavage stood at 0.04.

For G1A G22C G27A C31A U34G A39U, the self-cleavage amounted to 0.03. As for G1C A16G G33A, the figure is 0.02. As for G1A G5C G7U G22A G30U U34A, the figure is 0.22. Regarding G1C C3G A14G, the self-cleavage was 0.03. As for G1A U9G G27C, the figure is 0.23; as for G1A G5U G22C U32A C45G, 0.04; as for G1A U9G A16G G21A, 0.16. As for G1C A26G U38C, the figure is 0; as for G1C C18A U28C C31G, 0.01. As for G1C C42G U43C, the figure is 0. As to G1A C23A U43G, the self-cleavage turned out to be 0. As for G1C C10A G19A C23U C31A, the figure is 0.01; as for G1C G2C A4C A25C, 0.04; as for G1A G2C G5C U9A G27U U32C C37G G40A, 0.03.

On to G1A G5A G7A C23A, for which the self-cleavage amounted to 1.35.

G1C A12U G17A A39U: the self-cleavage came to 0.01. Consider G1C C3A G36C, for which the self-cleavage is 0.66. Turning to G1A C15A U28A U32A G36U C42U, the self-cleavage is 0.02. As for G1A G5A G7C U9A, the figure is 0.5. For G1A G2A G19A G27U, the self-cleavage amounted to 2.94. As for G1A C13A G40U, the figure is 0.07; as for G1C C8G G21A G35A, 0.03; as for G1A G7U G17C G29C G35U, 0.03. As for G1C G2A C13U G33A U38A, the figure is 0.01; as for G1C G19C C45U, 0.27.

Turning to G1A C18A A25G G36U, the self-cleavage came out at 0.03. On to G1C G17U C18U G44C, for which the self-cleavage was 0.01. Consider G1C A25C C45U, for which the self-cleavage was determined as 0.06. As to G1A G19C G22A C37A, the self-cleavage came out at 0.03. As for G1C C8A C10A A11C C18G G30C G35A, the figure is 0.01; as for G1C A25C G40U U43G, 0.02; as for G1C G2U G36A A39G, 0.08.

With G1A U9C C10A C37U G44A, the self-cleavage was 0.05. As for G1C G17A C23G, the figure is 0.01; as for G1A C15A G19U U20C A24U G35A C46A, 0.01. As for G1A U9A A26G, the figure is 0.43.

On to G1C C8A A25G A41U G44U, for which the self-cleavage came out at 0.03. As for G1C C3A C37G G40A, the figure is 0.1; as for G1C A16G C45A, 0.07. Turning to G1C C8A G19A G21U A24U A41C, the self-cleavage came to 0.06.

On to G1C A26G G33A U34C C37U G40C, for which the self-cleavage is 0.

Regarding G1A G2A A11G A12C G17C G22A G29U, the self-cleavage was 0.02.

As to G1C C10A U28A, the self-cleavage was 0.02. As for G1C A24G G29A, the figure is 0.09. As for G1C G2A G19A, the figure is 0.15. As for G1C A26C C46A, the figure is 0.09; as for G1A G22A G35A, 0.28; as for G1C A4U G33U, 0.02. For the variant G1C G2C C31U G44U, the self-cleavage came to 0.06. As for G1C G7U C45U, the figure is 0.01; as for G1A C13A A26G, 0.03. As for G1A G2C G5A C10A A25G G29U G30A, the figure is 0.04. As for G1C C15U C42U, the figure is 0.08; as for G1A G27A G29A, 0.47.

As to G1C A14G G30U, the self-cleavage was 0.01. Consider G1A G22U U28C G29C G36C, for which the self-cleavage came to 0.04. Turning to G1A G2U U28G U32C, the self-cleavage was 0.09. As for G1C A6U C15U A41G, the figure is 0.22; as for G1C C3G A11G U28A G36C U38A C42U, 0.01; as for G1A C15A A16G C42G, 0.01. As for G1C C37A A39C U43A, the figure is 0.04. Take G1C A11C A12U C18U G33A C37G G40C C45U: the self-cleavage stood at 0.

In the case of G1C G5U A39G, the self-cleavage was 0.

Turning to G1A G7A A16C A26C G36U, the self-cleavage was found to be 1.7. As for G1C A14G G29U U38A, the figure is 0.04. As for G1A G5C C8A G33C, the figure is 0.08; as for G1A G33U C42A, 0.13. As for G1A G19U G30C C37G A39U C42G, the figure is 0.05; as for G1C C13G G27A U32A, 0.01. Turning to G1A U32C A41C, the self-cleavage was determined as 0.09. As for G1C A11U G44U, the figure is 0.01. As to G1C A16C C23G G36C G44C, the self-cleavage stood at 0.01.

Regarding G1C A11U A24C U28G C37A U43G C45G, the self-cleavage was determined as 0. As for G1A C13A C15U G21U U28A C37A, the figure is 0; as for G1C G7C U32A G33U U38C A39U C45A, 0.04; as for G1C G5A C15A A41G, 0.03. As for G1A C15A C42U, the figure is 0.05. As for G1C C3U G7A C8A A11U U38G, the figure is 0.01; as for G1A G2A C10U, 0.19. Take G1A G5U G7C G19A G22U: the self-cleavage is 0.22. Take G1C A6U C10A C13U G19U A39C: the self-cleavage was found to be 0.02. As for G1C A4G C15A, the figure is 0.2; as for G1A G19C G22A, 0.31; as for G1C G7C C31G, 0.04. As for G1A C13G A24U, the figure is 0.07.

On to G1C G5U A6G A26G, for which the self-cleavage is 0.03.

In the case of G1C A4C C18A U20A, the self-cleavage stood at 0.01.

G1C G2A G35A C37A: the self-cleavage turned out to be 0.03. Take G1C G5A G7A A41U C46U: the self-cleavage is 0.11. As for G1A G7U C13G G21A G22A, the figure is 2.7; as for G1C G5A C13A U34A C37G, 0.06; as for G1A G2A A14U C15A G19U, 0.3. As for G1C A6U C13A A24U U28G U38G C45A, the figure is 0.01; as for G1C A6C A11C, 0.01. As for G1C A12C A16C, the figure is 0; as for G1A U9G A24U, 0.57. As for G1C C37G G40C, the self-cleavage was found to be 0.03. G1A G2A U9C G17U U20A G35A G44U: the self-cleavage was 0.01. As for G1A G19A G30U, the figure is 1.62; as for G1A G19A G30C, 0.65.

Turning to G1C C15G A39G, the self-cleavage was 0.02.

For G1A C23U A24U A25C G40U C45A, the self-cleavage was 0.03. As for G1C C8G A11U, the figure is 0; as for G1C A6G G19U G21A G29C U38C G40A, 0.02; as for G1C G5A C15G U38C, 0. Turning to G1A C18A C46U, the self-cleavage was determined as 1.83. On to G1C C10A G19A G33U C42A, for which the self-cleavage stood at 0.

As for G1A G33U C45G, the self-cleavage came to 0.05.

Regarding G1A G7U A12C C15G G30C A39U, the self-cleavage worked out at 0.03.

On to G1A G5A A6G G29U C45A, for which the self-cleavage came to 0.07. As for G1C C31G U34C C37U C46A, the figure is 0. With G1C C8U A26G G29U, the self-cleavage worked out at 0.09. As for G1A G30U A39G, the figure is 0.22; as for G1A G5A C10A G27A, 0.1.

As for G1C C13U C42A, the self-cleavage was determined as 0.01.

As for G1A G2A U9G C18A, the self-cleavage was 0.87. As for G1C A25G A39C C42A, the figure is 0; as for G1A U9G G33U, 0.05.

Source of the values: the RNAGym collection of RNA variant scans (doi:10.7554/elife.90254).
